From PubChem BioAssay AID463173 (ICCB-Longwood Screening Facility, Harvard Medical School, 2010)
Hit rate of the full screen: of about 52,000 compounds, about 4,300 (8.3%) were called active. Cut-off read from the data, not from the text of the source: active = survival mostly below about 52% (no sharp cut-off); inactive = mostly above about 56%. Some of the results follow.

These molecules were tested on DeltatarO mutant (assay: growth inhibition of S. aureus wild type versus tarO mutant, primary screen, teichoic acid synthesis inhibitors, RN4220, OD600 (AID 463173)). Conditions: OD600, 18 h, active compounds read low, screened at 18.75 µg/mL (by protocol).

| SMILES | survival |
| --- | --- |
| Cc1ccc(/C=C/C(=O)Nc2nc(-c3cccs3)ns2)cc1 | inactive: 77% |
| COc1cc(C(=O)N(Cc2ccc(F)cc2)Cc2ccco2)cc(OC)c1OC | inactive: 103% |
| COc1ccc(Cn2c(=O)[nH]c3cc(C(=O)NCCC(C)C)ccc3c2=O)cc1 | inactive: 73% |
| COc1ccc(CNC(=O)CS(=O)Cc2nc(-c3ccc(OC)c(OC)c3)oc2C)cc1 (configuration not stated) | inactive: 86% |
| CCn1c(C)c(C)c2cc(C(=O)NCCCN3CCCCC3C)ccc21 (configuration not stated) | inactive: 91% |
| Cc1ccc(N(CC(=O)Nc2cccc(Cl)c2C)S(=O)(=O)c2c(C)noc2C)cc1 | inactive: 54% |
| Cc1cc(C)c(NC(=O)CSc2nc3ccccc3c3nc(CCn4cncc4C)nn23)c(C)c1 | inactive: 90% |
| O=S(=O)(c1ccc(Cl)cc1)c1nc(-c2ccccc2Br)oc1NCc1ccccc1 | inactive: 83% |
| CCN(CC)CCCNc1cc(-c2ccccc2)nc(C)n1 | inactive: 65% |
| Cc1ccc(C)c(OCCn2c(C3CC(=O)N(Cc4ccc(F)cc4)C3)nc3ccccc32)c1 (configuration not stated) | active: 0% |
| CCN1CCN(C(=O)c2ccc3c(c2)N(Cc2cccc(Cl)c2)C(=O)c2ccccc2S3=O)CC1 (configuration not stated) | inactive: 92% |
| CCC(C(=O)Nc1ccc(C(C)=O)cc1)n1cnc2nc3c(cc2c1=O)CCCC3 (configuration not stated) | inactive: 91% |
| CCOc1ccccc1NS(=O)(=O)c1ccc2c(c1)CC(C)N2C(=O)C1CC1 (configuration not stated) | inactive: 73% |
| COc1cc(C(CC(=O)NCc2ccccc2)N2Cc3ccccc3C2=O)cc(OC)c1OC (configuration not stated) | inactive: 135% |
| S=C1NCN(CCCn2ccnc2)CN1 | inactive: 57% |
| CCc1c(C)nc2nncn2c1Nc1ccc(Cl)cc1 | inactive: 91% |
| COc1ccc(-n2c(=O)c3c4c(sc3n(Cc3ccc(C)cc3C)c2=O)CCC4)c(OC)c1 | inactive: 66% |
| CCc1nc2ccccc2n2c(-c3ccccc3)c3c(=O)n(C)c(=O)n(C)c3c12 | inactive: 75% |
| COc1ccc2c(C)c(CCC(=O)NCc3ccc(C)cc3)c(=O)oc2c1 | inactive: 82% |
| CCSc1ccc(C(=O)Nc2ccc(-c3nc4ccc(C)cc4s3)cc2)cc1 | inactive: 112% |
| COC(=O)c1c(SC)nc2ccccc2c1OCc1ccccc1Cl | inactive: 115% |
| CCOc1ccc(NC(=O)C2CCN(c3nc4ccccc4[nH]3)CC2)cc1 | inactive: 99% |
| COC(=O)C1=C(C)N=C2SCCC(=O)N2C1c1ccc(OCc2ccccc2)c(OC)c1 (configuration not stated) | inactive: 57% |

| SMILES | survival |
| --- | --- |
| CCOC(=O)c1c(C)[nH]c(C)c1S(=O)(=O)N(C)CC(=O)N1CCN(c2ccc(Cl)cc2)CC1 | inactive: 88% |
| CCOc1ccc(CN2CCc3nc(N4CCN(c5ncccn5)CC4)ncc3C2)cc1OC | inactive: 95% |
| Cc1ccc(-c2c(C(=O)N3CCN(c4cccc(C)c4)C(C)C3)oc(=O)c3ccccc23)cc1 (configuration not stated) | inactive: 89% |
| CCC(CC)C(=O)OCc1cc(=O)n2nc(C3CCCCC3)sc2n1 | inactive: 88% |
| CC(C)(C)OC(=O)N1CCC(c2c(C(=O)NCCc3ccsc3)cnn2-c2ccccc2Cl)CC1 | inactive: 77% |
| CCOc1ccc(N2C(=O)CS(=O)(=O)C23C(=O)N(Cc2cccc(Cl)c2)c2ccccc23)cc1 (configuration not stated) | inactive: 78% |
| O=C(NCCc1csc(-c2ccc(F)cc2)n1)c1ccco1 | inactive: 87% |
| CC1=C(C(=O)Nc2cc(Cl)ccc2C)C2(CCCCC2)OC1=O | inactive: 78% |
| Cc1cc(C)cc(NC(=O)CCc2nnc3n(C)c(=O)c4sccc4n23)c1 | inactive: 75% |
| Cc1cc(C)n2nc(CNC(=O)c3ccccc3Cl)nc2n1 | inactive: 133% |
| CCC(=O)NC1CCN(C(=S)NC)CC1 | inactive: 86% |
| Cc1cc(C)c(S(=O)(=O)NCC(=O)N2CCc3ccccc3C2)c(C)c1 | inactive: 89% |
| Cn1c(=O)n(C)c2cc(N3CCOCC3)c(NC(=O)c3ccc(Cl)cc3)cc21 | inactive: 87% |
| O=C(NCc1ccc2c(c1)CCN2C(=O)c1ccncc1)c1ccccc1Cl | inactive: 96% |
| O=C1C(=O)N(C2CCN(S(=O)(=O)c3ccccc3)CC2)CCN1Cc1ccccc1 | inactive: 99% |
| Cc1nc2ccc(C(=O)O)cc2c2c1CC(C)S2 (configuration not stated) | inactive: 100% |
| COc1cccc(N2CCN(C(=O)C3CCCN(S(=O)(=O)c4ccc5c(c4)oc(=O)n5C)C3)CC2)c1 (configuration not stated) | inactive: 73% |
| COc1ccccc1CCNC(=O)C(=O)NCC(c1ccco1)S(=O)(=O)c1ccc(F)cc1 (configuration not stated) | inactive: 94% |
| Cn1c2ccccc2c2c(C(=O)N3CCN(c4cccc(Cl)c4)CC3)cn(C3CCCCC3)c(=O)c21 | inactive: 81% |
| COc1ccc(OC)c(CCNC(=O)c2cc3cccc4c3n2CC(C)S4)c1 (configuration not stated) | inactive: 72% |
| Cn1c(=O)c2c(nc(CN3CCN(c4ccccc4F)CC3)n2Cc2ccccc2F)n(C)c1=O | inactive: 92% |
| COc1ccc(N2CC(NC(=O)COc3ccc(F)cc3)CC2=O)cc1OC (configuration not stated) | inactive: 98% |
| Cn1cnc2c(=O)oc3ccc(S(=O)(=O)N4CCN(c5cccc(C(F)(F)F)c5)CC4)cc3c21 | inactive: 108% |

| SMILES | survival |
| --- | --- |
| CC(C)(C)OC(=O)N1CCC(c2c(C(=O)Nc3ccc4c(c3)OCCO4)cnn2-c2ccc(F)cc2F)CC1 | inactive: 76% |
| CCOC(=O)CC(NC(=O)c1cc2cc(Br)cc(OC)c2oc1=O)c1ccc(OC)cc1 (configuration not stated) | inactive: 58% |
| CCOC(=O)C(=O)NCC(c1cccnc1)N1CCN(c2ccccc2)CC1 (configuration not stated) | active: 65% |
| CCOC(=O)c1ccc(NC(=O)CSc2ccc(-c3ccccn3)nn2)cc1 | inactive: 63% |
| CCN(CC)c1cc(C)c2cc(NC(=O)c3ccccc3Cl)ccc2n1 | inactive: 55% |
| Cc1ccc(-c2nc3c(c(SCC(=O)N(C)c4ccccc4)n2)Cc2c(CO)cnc(C)c2O3)cc1 | inactive: 64% |
| CCC1CN(C(=O)NCc2ccccc2)c2cc(Cl)ccc2O1 (configuration not stated) | active: 46% |
| O=C(Nc1cccc(OCc2cc(=O)n3ccccc3n2)c1)c1ccccc1Br | inactive: 88% |
| COc1ccc(S(=O)(=O)NCCc2nnc3ccc(SCC(=O)Nc4cc(C)cc(C)c4)nn23)cc1 | active: 63% |
| COC(=O)CN1C(=O)CSc2ccc(S(=O)(=O)Nc3cccc(C)c3)cc21 | inactive: 101% |
| COCCn1nnnc1C(c1ccncc1)N1CCCC1 (configuration not stated) | inactive: 80% |
| Cc1cccc(C(=O)Nc2nc3nc(-c4ccccc4)cc(=O)n3[nH]2)c1 | inactive: 73% |
| CCSc1ncc(Cl)c(C(=O)Nc2ccc(S(=O)(=O)Nc3ncccn3)cc2)n1 | inactive: 81% |
| CC(C)(C)CC(=O)Nc1nnc(-c2ccccc2)s1 | inactive: 86% |
| COc1cccc(CNC(=O)CCCn2ncn3c(cc4occc43)c2=O)c1OC | inactive: 119% |
| CCCc1nnc(NC(=O)C(CC)Sc2nnc3c4ccccc4n(C)c3n2)s1 (configuration not stated) | inactive: 61% |
| COc1ccc(CNC(=O)c2sc3nc4n(c(=O)c3c2C)CCC4)cc1 | inactive: 82% |
| COc1ccc(-n2ccn(CC(=O)Nc3ccc(C)cc3C)c(=O)c2=O)cc1 | inactive: 79% |
| COc1ccc2c(c1)c1c(c(=O)n(-c3cccc(C)c3)c(=O)n1CC(=O)NCc1ccc(C)cc1)n2C | inactive: 87% |
| COc1ccc(-c2cc(C(=O)NCCc3ccccc3)c3c(-c4ccc(Cl)cc4)[nH]nc3n2)cc1 | inactive: 93% |
| COc1ccc(CCNC(=O)CS(=O)(=O)Cc2nc(-c3cccc(Cl)c3)oc2C)cc1OC | inactive: 64% |
| CC(C)c1ccccc1NC(=O)Cn1cnc2c1c(=O)n(C)c(=O)n2C | inactive: 87% |
| COc1ccc(CNC(=O)c2cccn2-c2nnc(N3CCCCC3)s2)c(OC)c1 | active: 0% |

| SMILES | survival |
| --- | --- |
| O=C(NCc1cccnc1)c1c(O)c2cccc3c2n(c1=O)CC3 | inactive: 84% |
| O=C(Cn1c(=O)n(Cc2ccc(C(=O)NCc3ccc4c(c3)OCO4)cc2)c(=O)c2ccccc21)Nc1ccccc1F | inactive: 80% |
| O=C(CCS(=O)(=O)c1cc(Br)cc2c1N(C(=O)C1CC1)CC2)N1CCN(c2cccc(C(F)(F)F)c2)CC1 | inactive: 59% |
| Cc1ccc(CSc2nc3ccncc3n2Cc2nc(-c3ccccc3C)oc2C)cc1 | active: -4% |
| Cc1cccc(N2C(=O)N(Cc3cccc(C#N)c3)c3ccccc3S2(=O)=O)c1 | inactive: 88% |
| CCCNC(=O)c1c(NC(=O)c2ccccc2)sc2c1CCC(C(C)(C)C)C2 (configuration not stated) | active: 9% |
| Cc1cccc(CCNC(=O)CCS(=O)(=O)c2cc3c(cc2C)NC(=O)CO3)c1 | inactive: 95% |
| CCc1nnc2c(Nc3ccccc3Br)nc3ccccc3n12 | inactive: 93% |
| Cn1cnc(S(=O)(=O)N2CCC(C(=O)Nc3ccc(Cl)c(C(F)(F)F)c3)CC2)c1 | inactive: 83% |
| Cc1nn(-c2ccccc2)c2sc(C(=O)N(CC(=O)NC3CCCC3)C3CC3)cc12 | inactive: 78% |
| CCOC(=O)N1CCC2(CC1)OC(=O)C(C)=C2C(=O)NCc1ccccc1OC | inactive: 79% |
| COc1ccccc1N1CCN(C(=O)CNS(=O)(=O)c2ccc(Br)s2)CC1 | inactive: 116% |
| CCc1cccc(NS(=O)(=O)c2ccc3c(c2)N(CC(=O)OC)C(=O)CS3)c1 | inactive: 92% |
| Cc1ccc(OCC(=O)Nc2ccc3nn(-c4ccc(C)cc4)nc3c2)cc1 | inactive: 55% |
| COC(=O)c1cc(C)nc2c1c(=O)nc(SCc1ccccc1Cl)n2C1CC1 | inactive: 71% |
| CCN1CCN(C(c2ccc(F)cc2)c2sc3nc(-c4ccco4)nn3c2O)CC1 (configuration not stated) | inactive: 135% |
| Cc1ccc(S(=O)(=O)CCC(=O)N2CCN(c3nc4c(C)c(C)ccc4s3)CC2)cc1 | inactive: 92% |
| COc1ccc(N2CCN(C(c3ccc(F)cc3)c3sc4nc(-c5ccco5)nn4c3O)CC2)cc1 (configuration not stated) | inactive: 93% |
| CCc1cc(=O)[nH]c(SCc2nc(-c3ccc(C(F)(F)F)cc3)no2)n1 | active: 32% |
| CC(=O)N1CCCC1c1nc2ccccc2n1Cc1ccccc1F (configuration not stated) | inactive: 61% |
| CCC(C)NC(=O)c1cnn(-c2cccc(F)c2)c1-n1cccc1 (configuration not stated) | inactive: 103% |
| Cc1cccc(C(C)C)c1NC(=O)c1ccc2c(c1)CCCN2S(C)(=O)=O | inactive: 90% |
| Cc1cc(Cl)ccc1OCC(=O)N(Cc1ccc(N(C)C)cc1)C1CCS(=O)(=O)C1 (configuration not stated) | active: 39% |
